Hit rate of the full screen: of about 420,000 compounds, about 64,000 (15%) were called active. The inconclusive results got no clear call from the source; some entries with a clear call stand among them for comparison. Calls come from the whole dose curve; as a rule, active = well fitted inhibition curve with a large enough effect; inconclusive = small, poorly fitted or top-dose-only effect; inactive = flat fitted curve, though single readings scatter. Potencies of inconclusive entries are left out as doubtful fits.
Test: qHTS for Inhibitors of human tyrosyl-DNA phosphodiesterase 1 (TDP1): qHTS in cells in absence of CPT; note: nearly all actives have a fitted effect of over 55% in size
Conditions: DT40 Tdp1-/- hTDP1 cells, no CPT, ATP luminescence, 48 h; activity change, negative = growth inhibition: at 46.2 µM (top of the series)
Summary of the method: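 DT40 Tdp1-/-;hTDP1 cells, no CPT (DMSO vehicle only), 400 cells/well; compounds pin-transferred; ≥48 hr, 37 °C; CellTiter-Glo 30 min RT dark, luminescence read.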
% is set by controls: 0 for no effect and ±100 for the full control effect; potency is the fitted concentration of half-maximal effect; tags give direction and shape of the fitted curve.

Row | Compound | Potency | activity change, negative = growth inhibition
1 | CCOC(=O)N1CCN(C(=O)C[C@@H]2C[C@@]3(C(=O)OC)CCCCC=C3N(CCc3ccc(OC)c(OC)c3)C2=O)CC1 | inconclusive [inhibitor, single point] | –
2 | Cc1ccc(N2CCN(C(=O)C3CCC(=O)N(Cc4ccc(Cl)cc4)C3)CC2)c(C)c1 (stereo not drawn) | active: 18.4 µM | –
3 | Fc1cccc(Cc2c(-c3cccc(Cl)c3)nc3ccc(Cl)cn23)c1 | inconclusive [inhibitor, single point] | –
4 | O=c1[nH][nH]c2cc(=O)n(-c3cccc(C(F)(F)F)c3)nc12 | inactive | –
5 | Cc1ccc(CNC(=O)Cn2cc(S(=O)(=O)Cc3cccc(Cl)c3)c3ccccc32)cc1 | inconclusive [inhibitor, single point] | –
6 | COCOCCn1cc(CN2CCS(=O)(=O)N(Cc3ccc(-c4ccc(C)cc4)cc3)C(CC(C)C)C2=O)nn1 (stereo not drawn) | inconclusive [inhibitor, full curve] | –
7 | COc1ccc(C(=O)Nc2nnc(C3=COCCO3)o2)cc1 | inactive | –
8 | COc1ccc(-c2nc3nc(C)cc(Nc4cccc(C(F)(F)F)c4)n3n2)cc1 | inactive | –
9 | CC(C)COc1ccc(C(=O)Nc2ccccc2[N+](=O)[O-])cc1 | inconclusive [inhibitor, partial curve, poor fit] | –
10 | COc1ccc(NC(=O)c2cc(-c3ccccc3)oc2C)cc1 | – | inconclusive: -33.8% [inhibitor]
11 | CCc1sc(C(=O)Nc2cccc(C(C)=O)c2)cc1C | inconclusive [inhibitor, single point] | –
12 | COc1ccc(C(=O)OCC(=O)N2CCc3ccccc32)cc1S(=O)(=O)N1CCOCC1 | inconclusive [inhibitor, single point] | –
13 | Cc1nn(CC(=O)Nc2ccc(Cl)cc2)c(=O)c2cc(-c3ccccc3)nn12 | – | inconclusive: -35.2% [inhibitor]
14 | Cc1cc(C(=O)NC2CC(C)(C)Cc3c2cnn3-c2cccc(F)c2)nn1C (stereo not drawn) | inconclusive [inhibitor, single point] | –
15 | CCOC(=O)C1CCN(C(=O)c2cccc(S(=O)(=O)NCc3ccccc3)c2)CC1 | inconclusive [inhibitor, single point] | –
16 | Cc1ccc(-c2nc3c(Cl)cc(C(F)(F)F)cn3c2Cc2cccc(F)c2)cc1 | inconclusive [inhibitor, single point] | –
17 | O=C(CCCc1nc(-c2ccccc2)no1)Nc1cc(C(F)(F)F)cc(C(F)(F)F)c1 | active: 23.1 µM | –
18 | Cc1cc(NC(=O)CSc2nccn2-c2cccc(F)c2)no1 | inconclusive [inhibitor, single point] | –
19 | O=C(NCCCN1CCCCC1)c1ccc2c(=O)n(CCc3ccccc3)c(=O)[nH]c2c1 | inconclusive [inhibitor, single point] | –
20 | O=C(O)CCN(CC(=O)c1ccc(Cl)cc1)S(=O)(=O)c1ccc([N+](=O)[O-])cc1 | inactive | –
21 | COc1ccc(CNC(=O)OCCN2CCN(S(=O)(=O)c3ccc(C)cc3)CCC2=O)cc1 | inconclusive [inhibitor, partial curve, poor fit] | –
22 | Cc1ccc(-c2cc(-c3ccccc3Cl)[nH]n2)c(O)c1 | inconclusive [inhibitor, partial curve] | –
23 | CCCC(=O)Nc1ccc2c(c1)c1ccccc1n2CC | inconclusive [inhibitor, partial curve, poor fit] | –

Row | Compound | Potency | activity change, negative = growth inhibition
24 | COc1ccc(C(=O)NCCNC(=O)c2cc(OCC(F)(F)F)ccc2OCC(F)(F)F)cc1 | inactive | –
25 | CC(/C=N/n1c(COc2ccccc2)n[nH]c1=S)=C\c1ccco1 | inactive | –
26 | COc1ccc([N+](=O)[O-])cc1NC(=O)COC(=O)c1ccccc1O | inactive | –
27 | Cc1nn(-c2ccccc2)c2c1C(c1ccc(Cl)cc1)N(c1ccccc1)C(=O)N2 (stereo not drawn) | inactive | –
28 | CCN(CC)S(=O)(=O)c1cccc(NC(=S)NC(=O)/C=C/c2ccc(S(=O)(=O)N3CCOCC3)cc2)c1 | inconclusive [inhibitor, partial curve] | –
29 | CCc1nnc(NC(=O)CSc2n[nH]c(-c3ccccc3O)n2)s1 | inactive | –
30 | O=c1cc(CSc2nnc(Nc3ccccc3)s2)nc2sccn12 | inconclusive [inhibitor, single point] | –
31 | CCc1nc2ccc(C(=O)NCc3ccc4c(c3)OCO4)cn2c1N(C)Cc1ccc(OC)cc1 | active: 23.1 µM | –
32 | COc1cc(NC(=O)c2ccc3c(c2)S(=O)(=O)N=C2CCCCCN23)cc(OC)c1 | inconclusive [inhibitor, single point] | –
33 | COc1ccc(C(=O)N2CCc3ccccc32)cc1 | inactive | –
34 | Cc1sc(-n2cccc2)c(C(C)NC(=O)Nc2ccccc2Cl)c1C (stereo not drawn) | inconclusive [inhibitor, single point] | –
35 | Cc1cccc(C)c1-n1nnnc1C(c1ccnc2ccccc12)N1CCOCC1 (stereo not drawn) | inactive | –
36 | CCOc1ccc(NC(=O)c2cc(S(=O)(=O)N3CCCC3)c[nH]2)cc1 | inconclusive [inhibitor, single point] | –
37 | CN(CCc1ccccc1)C(=O)c1cccc(NC(=O)Cc2cccc(NC(=O)C3CCCN(C(=O)C4CCCCC4)C3)c2)c1 (stereo not drawn) | inconclusive [inhibitor, single point] | –
38 | O=C(CNC(=S)N(Cc1ccccc1)Cc1ccccc1F)NCCc1ccccc1 | inconclusive [inhibitor, single point] | –
39 | COc1ccncc1-c1csc(C(O)c2ccccc2)n1 (stereo not drawn) | inactive | –
40 | CCCc1cc(=O)n2[nH]c(-c3ccc(C)cc3)cc2n1 | inconclusive [inhibitor, single point] | –
41 | Cc1ccccc1C(=O)NNC(=S)NC(=O)c1cccnc1 | inconclusive [inhibitor, single point] | –
42 | CCOC(=O)c1ccc(NC(=O)c2cc(=O)[nH]c3ccccc23)cc1 | inactive | –
43 | CCOC(=O)c1c(NC2=NS(=O)(=O)c3ccccc32)sc2c1CCCCC2 | inconclusive [inhibitor, partial curve, poor fit] | –
44 | N#Cc1nc(Cc2cccc3ccccc23)oc1NCc1ccc(F)cc1 | active: 20.6 µM | –
45 | O=C(Nc1cc(Cl)cc(Cl)c1)N1CCCN(Cc2ccccc2)CC1 | inconclusive [inhibitor, single point] | –
46 | COc1cccc(NC(=O)CCSc2ccc3ccccc3n2)c1 | inconclusive [inhibitor, partial curve] | –

Row | Compound | Potency | activity change, negative = growth inhibition
47 | Cc1nc(N/N=C\c2ccc3c(c2)OCO3)sc1C | inconclusive [inhibitor, single point] | –
48 | COc1ccc(-n2c(C)c(C)c3c(NCCCO)ncnc32)cc1 | inconclusive [inhibitor, partial curve, poor fit] | –
49 | C/C(Cc1ccccc1)=N\NC(=O)CNC(=O)c1ccc(C(C)(C)C)cc1 | inactive | –
50 | COc1ccc(-c2nnc(SCC(=O)N3CCCC3)o2)c(OC)c1 | inactive | –
51 | COc1ccc(/C=C/c2cc[n+](C)c3ccccc23)cc1OC | inconclusive [inhibitor, single point] | –
52 | COc1ccc(N(C)S(=O)(=O)c2cccc(C(=O)NC3CCCC(C)C3C)c2)cc1 (stereo not drawn) | inconclusive [inhibitor, single point] | –
53 | Cc1cc(C(=O)NC(=S)Nc2ccccc2N2CCOCC2)ccc1[N+](=O)[O-] | inconclusive [inhibitor, single point] | –
54 | CCN(CC)C(=O)c1oc2ccc(S(=O)(=O)N3CC(C)CC(C)C3)cc2c1C (stereo not drawn) | active: 9.2 µM | –
55 | O=C(CSCc1cccc(Cl)c1)OCc1nc2ccsc2c(=O)[nH]1 | inactive | –
56 | COC(=O)c1ccccc1NC(=O)c1cc2c(s1)-c1ccccc1OC2 | inconclusive [inhibitor, single point] | –
57 | COc1cc(/C=C/C(=O)Nc2cc(S(=O)(=O)N3CCOCC3)ccc2N2CCCC2)cc(OC)c1OC | inconclusive [inhibitor, single point] | –
58 | Cc1ccc(OC(=O)c2ccc([N+](=O)[O-])cc2Cl)cn1 | inactive | –
59 | [O-][n+]1nc2ccccc2c2ccccc21 | inactive | –
60 | COc1ccc(CCn2c(=N)c(C(=O)NCc3ccco3)cc3c(=O)n4ccccc4nc32)cc1OC | active: 6.51 µM | –
61 | O=C(NCc1ccc(C(F)(F)F)cc1)C1CC(c2ccccc2[N+](=O)[O-])=NO1 (stereo not drawn) | inconclusive [inhibitor, single point] | –
62 | O=C(CSc1nnc2n(C3CCCCC3)c(=O)c3ccccc3n12)OC1CCCCC1 | inconclusive [inhibitor, single point] | –
63 | CCc1ccc(-c2cc(C(=O)Nc3ccc(S(=O)(=O)NC(C)=O)cc3)c3ccccc3n2)cc1 | inconclusive [inhibitor, single point] | –
64 | C/C=C/c1ccc(OCC(=O)NCc2ccccc2OC)c(OC)c1 | inconclusive [inhibitor, single point] | –
65 | CN(C)C(=O)c1ccc(-c2nccc(NCc3cccnc3)n2)cc1 | inactive | –
66 | O=C(CSc1nc(-c2ccccc2)c2ccccc2n1)Nc1ccc(F)cc1 | inactive | –
67 | Cc1ccc(-n2nnnc2SCC(=O)c2cc(C)n(-c3cc(C)on3)c2C)c(C)c1 | active: 23.1 µM | –
68 | COc1ccc([C@H]2N[C@]3(CCCN(Cc4ccc(F)cc4)C3=O)[C@H]3C(=O)N(Cc4ccccc4)C(=O)[C@@H]23)cc1 | inconclusive [inhibitor, single point] | –
